{"source": "PubChem BioAssay AID504466", "about": "(National Center for Advancing Translational Sciences (NCATS), 2011)", "note": "Hit rate of the full screen: of about 330,000 compounds, about 4,200 (1.3%) were called active. Inconclusive results, whose numbers are uncertain, are shown with a selection of clear calls. Calls follow the shape of the dose curve; as a rule, active = well fitted activation curve with a large enough effect; inconclusive = small, poorly fitted or top-dose-only effect; inactive = no such curve, though single readings can be large or run the other way. Where the call is inconclusive, the potency comes from a doubtful curve fit. Potency is read from the fitted curve at half-maximal effect; tags tell the direction and shape of the fitted curve.", "data": [{"test": "qHTS screen for small molecules that induce genotoxicity in human embryonic kidney (HEK293T) cells expressing luciferase-tagged ELG1; also: nearly all actives have a fitted effect of over 60% in size; as to activity change, positive = activation: % of control where 0% means no effect", "conditions": "HEK293T ELG1-luciferase reporter, luminescence, 16 h; series mostly up to 46 µM; activity change, positive = activation: at the top concentration", "how_it_was_run": "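16 hr compound incubation (37 °C, 5% CO2) of HEK293T cells carrying luciferase-tagged ELG1; luciferase then measured by ONE-Glo luminescence after 30 min at RT.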", "values": [{"compound": "Cc1nc2ccccn2c1C(=O)N/N=C/c1ccc2c(c1)OCO2", "Potency": "inconclusive: 16.4 µM [activator, partial curve, poor fit]"}, {"compound": "Cc1cc(C(=O)NC2=NCCS2)cs1", "Potency": "active: 16.4 µM"}, {"compound": "S=C(NCc1ccco1)Nc1ccc2c(c1)OCCO2", "Potency": "inconclusive: 25.9 µM [activator, single point]"}, {"compound": "Cc1cc(NC(=O)c2cccc(C)c2[N+](=O)[O-])no1", "activity change, positive = activation": "inactive: 4.84%"}, {"compound": "Oc1ccc(Br)cc1-c1cc(-c2ccc(Cl)cc2)n[nH]1", "Potency": "inconclusive: 15.8 µM [activator, single point]"}, {"compound": "CCC(=O)NCCc1nc2cc(NC(=O)Nc3ccccc3)ccc2n1C", "Potency": "inconclusive: 9.2 µM [activator, partial curve]"}, {"compound": "CCn1c(C)nc2cc(C(=O)N/N=C/c3cccc(OC)c3O)ccc21", "Potency": "inconclusive: 29.1 µM [activator, single point]"}, {"compound": "COc1cccc2cc(-c3csc(CCn4nc(C)cc4C)n3)c(=O)oc12", "activity change, positive = activation": "inactive: -1.7%"}, {"compound": "Cc1nn(-c2ccccc2)c(N)c1N=Nc1ccccc1", "Potency": "inconclusive: 7.31 µM [activator, partial curve]"}, {"compound": "Cc1cccnc1NC(=O)Nc1ccc(F)cc1", "Potency": "inconclusive: 7.31 µM [activator, partial curve]"}, {"compound": "CCOC(=O)c1ccc(NC(=O)Cc2cccs2)cc1", "Potency": "inconclusive: 23.1 µM [activator, single point]"}, {"compound": "O=C1c2nc3cc(-c4ccco4)[nH]n3c(=O)c2CN1C1CCCCC1", "Potency": "inconclusive: 20.6 µM [activator, partial curve, poor fit]"}, {"compound": "CCn1c(=O)cc(OCC(=O)N(C)C2CCCCC2)c2ccccc21", "Potency": "inconclusive: 11.2 µM [activator, partial curve, poor fit]"}, {"compound": "O=C(CC1CCCC1)Nc1nc2ccccc2[nH]1", "Potency": "active: 16.4 µM"}, {"compound": "CCOC(=O)c1c(C)[nH]c(C)c1C(=O)COC(=O)C1CC(=O)N(CCc2ccccc2)C1", "note": "(stereo not given)", "activity change, positive = activation": "inactive: 3.9%"}, {"compound": "Oc1[nH]c2ccccc2c1C=Nc1ccc2c(c1)OCCO2", "Potency": "inconclusive: 0.731 µM [activator, partial curve, poor fit]"}, {"compound": "O=C1OC(c2cccs2)=N/C1=C/c1ccc(-c2cccc(C(=O)O)c2)o1", "Potency": "inconclusive: 25.9 µM [activator, single point]"}, {"compound": "O=C(Nc1ccc2oc(=O)ccc2c1)c1ccc(-c2ccccc2[N+](=O)[O-])o1", "Potency": "inconclusive: 32.6 µM [activator, partial curve, poor fit]"}, {"compound": "COc1ccc(C)cc1CN1C(=O)c2ccccc2C1=O", "activity change, positive = activation": "inactive: -5.74%"}, {"compound": "Cc1ccc(C(=O)NC(=S)Nc2ccccc2C)cc1", "Potency": "inconclusive: 8.2 µM [activator, partial curve]"}, {"compound": "Cc1ccc(/C(N)=N/OC(=O)c2ccc(F)cc2)cc1", "Potency": "active: 10.3 µM"}, {"compound": "CCc1ccc(/C=N/Nc2ncnc3nc[nH]c23)cc1", "Potency": "active: 7.3 µM"}, {"compound": "c1ccc2c(c1)CCN(c1nc3ccccc3n3cnnc13)C2", "activity change, positive = activation": "inactive: -0.37%"}, {"compound": "O=C(O)[C@@H]1CC(O)CN1C(=O)CCc1c[nH]c2ccccc12", "note": "(stereo not given in full)", "activity change, positive = activation": "inactive: 0.9%"}, {"compound": "Cc1ccn2c(C(=O)c3ccc(Cl)cc3)cnc2c1", "Potency": "active: 1.16 µM"}, {"compound": "CC(/C=C/c1ccccc1)=N\\NC(=O)c1ccc(Br)cc1", "Potency": "inconclusive: 25.9 µM [activator, single point]"}, {"compound": "Cc1cc(C)nc(NC(=O)c2ccc(Br)cc2)n1", "activity change, positive = activation": "inactive: -2.83%"}, {"compound": "Cc1sc(NC(=O)C2C3CCC(O3)C2C(=O)O)nc1-c1ccc(CC(C)C)cc1", "note": "(stereo not given)", "Potency": "inconclusive: 18.4 µM [activator, partial curve]"}, {"compound": "Cc1ccc(NC(=O)/C(C#N)=C/c2ccsc2)c(C)c1", "Potency": "inconclusive: 20.6 µM [activator, partial curve]"}, {"compound": "Cc1ccccc1/C(N)=N/OC(=O)c1cccs1", "Potency": "inconclusive: 23.1 µM [activator, partial curve, poor fit]"}, {"compound": "O=C1C2CC=CCC2C(=O)N1c1ccc(NCCc2ccccc2F)c([N+](=O)[O-])c1", "note": "(stereo not given)", "Potency": "inconclusive: 23.1 µM [activator, partial curve, poor fit]"}, {"compound": "CCOC(=O)/C(C#N)=C\\C=C1C=CN(C)C=C1", "Potency": "inconclusive: 20.6 µM [activator, partial curve]"}, {"compound": "COc1cc(C=O)ccc1OCc1ccccc1Br", "Potency": "inconclusive: 14.6 µM [activator, single point]"}, {"compound": "c1ccc(Cc2nnc3sc(-c4ccc5c(c4)OCCO5)nn23)cc1", "Potency": "inconclusive: 20.6 µM [activator, single point]"}, {"compound": "COc1cccc(C(=O)Nc2ccc3c(C)cc(=O)oc3c2)c1", "Potency": "active: 2.31 µM"}, {"compound": "O=C(Cn1cnc2ccccc2c1=O)c1ccc(Br)cc1", "Potency": "inconclusive: 16.4 µM [activator, partial curve, poor fit]"}, {"compound": "CCc1ccc(NC(=O)CCn2cccc2)cc1", "Potency": "inconclusive: 18.4 µM [activator, single point]"}, {"compound": "CC1(C)Cc2cccc(OCC(=O)Nc3ccc(S(N)(=O)=O)cc3)c2O1", "activity change, positive = activation": "inactive: -8.38%"}, {"compound": "Fc1ccc2cnc(C3=CCCCC3)cc2c1", "Potency": "inconclusive: 20.6 µM [activator, partial curve]"}, {"compound": "COc1ccc(C(=O)Nc2nccs2)cc1", "Potency": "inconclusive: 8.2 µM [activator, partial curve]"}, {"compound": "Cc1ccc(C(=O)CSc2cc(C)[nH]c(=O)n2)cc1", "Potency": "inconclusive: 2.59 µM [activator, full curve]"}, {"compound": "Cc1nc(N)sc1N=Nc1ccc(F)cc1", "Potency": "active: 11.6 µM"}, {"compound": "C=CCn1c(C)cc(C(=O)COc2ccc(C)nc2[N+](=O)[O-])c1C", "Potency": "inconclusive: 29.1 µM [activator, partial curve, poor fit]"}, {"compound": "O=C(/C=C/c1ccccc1Cl)NCc1ccco1", "activity change, positive = activation": "inactive: 8.69%"}, {"compound": "Cc1nc(NC(=O)c2cc3ccccc3o2)ccc1Br", "Potency": "inconclusive: 9.2 µM [activator, partial curve]"}, {"compound": "CCn1c(SCC(=O)NCCc2ccc(OC)c(OC)c2)nc2c1c(=O)n(C)c(=O)n2C", "activity change, positive = activation": "inactive: -1.36%"}, {"compound": "CCC(=O)Nc1cccc(C(=O)/C=C/c2ccccc2)c1", "Potency": "inconclusive: 29.1 µM [activator, single point]"}, {"compound": "Cc1nn(-c2ccccc2Cl)c(Cl)c1/C=N/Nc1cccc(C(=O)O)c1", "Potency": "inconclusive: 0.0517 µM [activator, full curve, poor fit]"}, {"compound": "COc1cccc(NC(=O)CSc2ccc3nnc(CCNC(=O)c4ccccc4)n3n2)c1", "activity change, positive = activation": "inactive: -2.69%"}, {"compound": "Nc1nc(-c2ccco2)nn1C(=O)c1cccnc1", "activity change, positive = activation": "inactive: -0.0042%"}, {"compound": "CCCN(CCC)CCCNC(=O)c1ccc(CS(=O)(=O)c2c(Cl)cccc2Cl)o1", "activity change, positive = activation": "inactive: -4.89%"}, {"compound": "O=c1c2ccccc2nc(-c2ccco2)n1CCc1ccc(O)cc1", "activity change, positive = activation": "inactive: -14.7%"}, {"compound": "O=c1c2ccccc2oc2cc(NCCCN3CCOCC3)ccc12", "Potency": "inconclusive: 2.91 µM [activator, full curve, poor fit]"}, {"compound": "O=[N+]([O-])c1cccnc1N/N=C/c1ccccc1O", "Potency": "inconclusive: 4.11 µM [activator, full curve]"}, {"compound": "Brc1ccc(CNc2ccc3ncccc3c2)cc1", "Potency": "inconclusive: 8.2 µM [activator, single point]"}, {"compound": "Cc1ccccc1NC(=O)c1ccc([N+](=O)[O-])o1", "activity change, positive = activation": "inactive: -4.79%"}, {"compound": "CNCC(=O)N(CC(C)C)c1c(N)n(CC(C)C)c(=O)[nH]c1=O", "activity change, positive = activation": "inactive: 2.99%"}, {"compound": "O=C(c1cc(-c2ccc(O)cc2)on1)N1CCCC1", "Potency": "active: 4.61 µM"}, {"compound": "Cc1ccc2nc(NC(=O)/C=C/c3ccc4c(c3)OCO4)sc2c1", "Potency": "inconclusive: 29.1 µM [activator, single point]"}, {"compound": "CC(=O)Nc1ccc(SCC(=O)c2cc(C)n(Cc3cccs3)c2C)cc1", "Potency": "inconclusive: 0.0651 µM [activator, full curve]"}, {"compound": "COc1ccc(OC)c(NC(=O)c2ccc(OCC(=O)N3CCOCC3)c(OC)c2)c1", "activity change, positive = activation": "inactive: 1.28%"}, {"compound": "O=C(Nc1ccc2nn(-c3ccccc3)nc2c1)c1cccs1", "Potency": "inconclusive: 10.3 µM [activator, partial curve, poor fit]"}, {"compound": "O=C(CSc1ncnc2sccc12)N1CCCCC1", "Potency": "inconclusive: 20.6 µM [activator, partial curve]"}, {"compound": "COc1ccc(NC(=O)COc2ccc(C)cc2)c([N+](=O)[O-])c1", "Potency": "active: 20.6 µM"}, {"compound": "CSc1ccc(CNc2ccccn2)cc1", "Potency": "inconclusive: 29.1 µM [activator, partial curve, poor fit]"}, {"compound": "Cc1ccc(Nc2n[nH]c(C)c2[N+](=O)[O-])cc1C", "Potency": "inconclusive: 3.66 µM [activator, partial curve]"}, {"compound": "Cc1ccc(/C=N/NC(=O)c2ccc(Cn3cc([N+](=O)[O-])cn3)o2)cc1", "activity change, positive = activation": "inactive: 1.92%"}, {"compound": "COc1cc(/C=c2\\sc3n(c2=O)CCCN=3)ccc1O", "Potency": "inconclusive: 20.6 µM [activator, partial curve, poor fit]"}, {"compound": "Brc1ccc(-c2nc(-c3cccnc3)no2)o1", "Potency": "inconclusive: 7.31 µM [activator, partial curve]"}, {"compound": "CCOC(=O)N1C/C(=C\\c2ccccc2)C(=O)/C(=C/c2ccccc2)C1", "Potency": "inconclusive: 6.51 µM [activator, single point]"}, {"compound": "CCOC(=O)c1sc(NCC2CCCO2)nc1C", "note": "(stereo not given)", "Potency": "inconclusive: 23.1 µM [activator, single point]"}, {"compound": "CCOCC(=O)Nc1nc2ccc(OC)cc2s1", "Potency": "active: 5.17 µM"}, {"compound": "O=C(COC(=O)c1ccc(S(=O)(=O)N2CCOCC2)cc1)Nc1nc(-c2ccccc2)cs1", "Potency": "inconclusive: 20 µM [activator, single point]"}, {"compound": "Cn1c(=O)cc2c3c(c(N4CCCCC4)ccc31)C(=O)c1ccccc1-2", "Potency": "inconclusive: 23.1 µM [activator, partial curve, poor fit]"}, {"compound": "Cc1ccc(C(=O)/C=C/c2c[nH]c3ccccc23)cc1", "Potency": "inconclusive: 20.6 µM [activator, partial curve, poor fit]"}]}]}
